The campaign covered roughly 310,000 compounds. About 14,000 (4.5%) showed an effect of 50% or more. The effect is printed as a negative number. This is one part of the list.
target: human ether-à-go-go-related gene (hERG) potassium channel (human, UniProt Q12809); experiment: primary screen, population patch clamp on CHO cells stably expressing hERG
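Further: peak tail current of the secondary pulse compared with the same well before compound.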

Sequence of human ether-à-go-go-related gene (hERG) potassium channel (Q12809 whole entry, looked up): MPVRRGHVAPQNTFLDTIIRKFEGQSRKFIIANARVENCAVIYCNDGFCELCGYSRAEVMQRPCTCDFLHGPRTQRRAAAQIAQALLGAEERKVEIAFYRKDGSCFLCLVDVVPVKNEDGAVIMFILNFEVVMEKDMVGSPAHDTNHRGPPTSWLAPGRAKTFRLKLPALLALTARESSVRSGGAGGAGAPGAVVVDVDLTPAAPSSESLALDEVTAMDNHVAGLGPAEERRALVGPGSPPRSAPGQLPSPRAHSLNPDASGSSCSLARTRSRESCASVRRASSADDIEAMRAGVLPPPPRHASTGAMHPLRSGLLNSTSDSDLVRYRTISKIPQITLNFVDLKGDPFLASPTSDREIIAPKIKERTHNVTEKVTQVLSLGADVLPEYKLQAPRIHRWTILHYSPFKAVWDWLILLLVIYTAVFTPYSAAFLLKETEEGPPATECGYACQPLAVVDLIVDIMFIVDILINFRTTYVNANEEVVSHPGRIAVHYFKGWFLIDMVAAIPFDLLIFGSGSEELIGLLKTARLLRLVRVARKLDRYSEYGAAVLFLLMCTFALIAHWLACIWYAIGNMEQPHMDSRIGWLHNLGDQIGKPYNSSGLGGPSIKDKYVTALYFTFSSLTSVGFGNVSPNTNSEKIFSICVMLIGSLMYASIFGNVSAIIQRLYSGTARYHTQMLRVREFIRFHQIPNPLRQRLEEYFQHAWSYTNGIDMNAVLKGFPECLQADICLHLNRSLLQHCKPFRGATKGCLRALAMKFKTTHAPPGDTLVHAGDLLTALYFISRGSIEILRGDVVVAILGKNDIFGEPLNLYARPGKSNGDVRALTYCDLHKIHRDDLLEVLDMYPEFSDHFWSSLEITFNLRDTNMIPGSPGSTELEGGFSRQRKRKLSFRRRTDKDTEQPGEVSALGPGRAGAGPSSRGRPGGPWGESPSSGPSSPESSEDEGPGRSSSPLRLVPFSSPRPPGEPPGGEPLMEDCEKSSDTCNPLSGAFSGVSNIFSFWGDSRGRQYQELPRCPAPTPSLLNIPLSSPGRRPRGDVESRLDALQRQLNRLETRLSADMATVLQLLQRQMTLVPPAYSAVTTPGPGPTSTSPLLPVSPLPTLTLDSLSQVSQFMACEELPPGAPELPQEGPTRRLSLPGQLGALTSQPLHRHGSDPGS

Compound	hERG current change (%, negative = inhibition) at 10uM [%]
CC(=O)O.O=c1/c(=C/c2ccc(O)cc2)sc2n1CCCN=2	-12.6
Cc1nc(SCC(=O)Nc2ccccc2C(F)(F)F)c(C#N)c(C)c1CC(=O)c1ccc(Br)cc1	25
O=C(Nc1ccccc1)c1ccc(CN2CCc3ccccc3C2)cc1	21.7
CCc1ccc(CNC(=O)CCC(=O)N2Cc3cccc(OC)c3Oc3ncccc32)cc1	-75
CC(=O)c1ccc(NC(=S)NC(=O)CC(C)C)cc1	17.9
COc1ccccc1-c1oc2ccccc2c1C#CC(C)(C)O	10.5
CN(C)c1nc(-c2ccccc2)nnc1C(F)(F)F	6.39
CC(=O)c1cccc(N(CC(=O)N2CCCCC2)S(C)(=O)=O)c1	-6.16
CCCCc1c(O)nc(SCC(=O)c2ccccc2)n(-c2ccccc2)c1=O	14.6
Cc1noc(C)c1CCC(=O)N1CCCC(CCC(=O)NCc2ccccc2F)C1 (stereo not drawn)	8.33
O=C(NCC(=O)N(Cc1ccccc1)C(C(=O)NC1CCCC1)c1ccco1)c1ccco1 (stereo not drawn)	-22.4
CCOC(=O)c1nn(-c2ccccc2)c(=O)cc1OCC(=O)Nc1cccc(OC)c1	2.93
CCCOc1ccc(N2CC(C(=O)Nc3ccccc3C(=O)NC)CC2=O)cc1 (stereo not drawn)	-71.8
COc1ccc(C(=O)NC(=S)Nc2ccc(Cl)cn2)cc1OC	19.1
CCOc1cc(C(=S)N2CCC(O)CC2)ccc1OS(=O)(=O)c1ccc(Br)cc1	-1.17
Cc1cc(C)n(CCN(C)Cc2cn[nH]c2-c2ccc(F)cc2F)n1	-3.2
COc1cc(CNC2CCCC2)cc(OC)c1OC.Cl	5.91
COc1ccc(NC(=O)C2CCN(S(=O)(=O)c3c(C)noc3C)CC2)cc1Cl	0.74
COc1cccc(OCC(O)CN2CCN(c3ccccc3)CC2)c1.Cl (stereo not drawn)	-43.4
O=C(Nc1cccc(Cl)c1)OCc1cnc(Cl)s1	-1.8
CCn1cc(S(=O)(=O)NC(C)c2cc(OC)ccc2OC)cn1 (stereo not drawn)	1.25

Compound	hERG current change (%, negative = inhibition) at 10uM [%]
CC(C)C(=O)N1N=C2CCCCC2C1(O)C(F)(F)F (stereo not drawn)	15.1
Cc1ccc(SCC(=O)OCC(=O)NC2(C#N)CCCCC2)cc1	-3.35
COc1ccc(NC(=O)c2ccccc2)cc1NS(=O)(=O)c1ccc(F)cc1	-6.06
CCCCn1c(N2CCC(Cc3ccccc3)CC2)nc2c1c(=O)[nH]c(=O)n2C	-49.4
O=c1[nH]c2cnccc2n1-c1ccccc1	9.04
COc1ccc2nc(NC(=O)c3cccnc3SC)sc2c1	14.4
O=C(Nc1cnn(Cc2c(Cl)cccc2Cl)c1)C(c1ccccc1)c1ccccc1	1.08
c1ccc(-c2nnn(C34CC5CC(CC(C5)C3)C4)n2)cc1	0.389
CN(C)C(=O)COc1ccc(Br)cc1	2.6
O=C(NCc1ccc2c(c1)OCO2)C(C(=O)c1ccccc1)n1cc(Cl)ccc1=O (stereo not drawn)	12.4
C=CCOc1ccc(/C=C/C(=O)OCc2csc(CC(=O)Nc3ccccc3C)n2)cc1	19
CSCCC(N=C1NS(=O)(=O)c2ccccc21)C(=O)N1CCCC(C(N)=O)C1 (stereo not drawn)	4.07
c1ccc(-c2cn3nc(-c4ccccc4)c(-c4ccccc4)nc3n2)cc1	5.34
CCn1c(SCC(=O)Nc2ccc(OCc3ccccc3)cc2)nnc1-c1ccco1	-0.171
CC(C)N(C(=O)CSc1nnc(Cc2ccc3c(c2)OCO3)n1C)C(C)C	-7.02
COc1cc(SC)ccc1C(=O)NCCOc1ccc(Cl)cc1	-21.3
CCOc1ccc(CCNC(=O)CN2C(=O)NC3(CCCC3)C2=O)cc1OCC	6.57
Cc1ccccc1-c1nc(CS(=O)(=O)CC(=O)NC2CC2)c(C)o1	12.5
CCN(CC(=O)Nc1ccc(OC)cc1)C(=O)Cc1ccsc1	4.6
COc1ccc(OC)c(CN2CCN(C(=O)c3ccco3)CC2)c1.O=C(O)C(=O)O	0.201
CC(NC(=O)CCCc1nnc2n(C)c(=O)c3sccc3n12)c1ccccc1 (stereo not drawn)	-12.6

Compound	hERG current change (%, negative = inhibition) at 10uM [%]
Cc1cccc(NS(=O)(=O)c2cccc(C(=O)N3CCCCCCC3)c2)c1	-30.1
Cc1cc(NC(=O)C2C3C(=O)N(CCC(C)C)C(C(=O)NCc4ccccc4)C34C=CC2(C)O4)no1 (stereo not drawn)	16.2
Cc1ccccc1-n1c(-c2csc3ccccc23)n[nH]c1=S	6.92
COc1cccc(C(=O)N/N=C(\C)c2cccc(NC(=O)c3ccc(F)cc3)c2)c1OC	-35.8
CNc1ccc(Br)cc(C(=O)/C=C/c2ccc(Cl)cc2Cl)c1=O	-8.01
COCCn1c(C)cc(C(=O)COc2ccc(C)nc2[N+](=O)[O-])c1C	-2.42
COc1cccc(-c2nc(CS(=O)(=O)CC(=O)Nc3cccc(C(C)=O)c3)c(C)o2)c1	17
O=C(COC(=O)c1ccc(F)cc1F)Nc1ccc(Cl)cn1	-3.65
CC(=O)c1ccc(NC(=O)CC2Nc3cccc4cccc(c34)NC2=O)cc1 (stereo not drawn)	14
COc1cccc(CNC(=O)CCCn2nc(C)c3c(C)n(-c4ccc(C)cc4)nc3c2=O)c1OC	11
O=c1[nH]c(C2CCN(S(=O)(=O)Cc3ccccc3)CC2)nc2c1nnn2Cc1ccccc1Cl	21.5
Cc1ccc(C)c(C(=O)CN2C(=O)c3ccccc3S2(=O)=O)c1	14.3
CC(C)(C)NC(=O)NCC1CCCC1NC(=O)NC(C)(C)C (stereo not drawn)	15.3
CN1CCN(CCCNC(=O)CCCOc2cc(=O)n(C)c3ccccc23)CC1	0.289
FC(F)(F)c1cc(CCN2C(=S)NC[C@@H]2Cc2ccccc2)cc(C(F)(F)F)c1	17.6
CCc1ccc(N2C(=O)Nc3ccccc3C2(O)C(=O)N2CCN(c3ccccn3)CC2)cc1 (stereo not drawn)	-5.24
CCCC(=O)Nc1ccc(N2CCCCC2)cc1	-8.42
CCOC(=O)C1CCCN(C(=O)c2ccc(Cl)c(S(=O)(=O)N3CCCCCC3)c2)C1 (stereo not drawn)	-70.7
COc1ccc(CCn2c([O-])cc3nn(-c4nc5ccccc5s4)c(=O)c-3c2C)cc1	10.2
C[C@@H](C(=O)Nc1ccc2ccccc2c1)[C@@H]1C[C@@]1(C)[C@@H](NC(=O)c1ccccc1)c1ccccc1	-10.1
COc1cccc(C(=O)Oc2ccc(/C=N/Nc3ccc(C(=O)O)cc3)cc2OC)c1	21.7

Compound	hERG current change (%, negative = inhibition) at 10uM [%]
O=C(Cc1cccs1)N1CCN=C1SCc1ccc(Br)cc1	0.534
O=C(CCCN1C(=O)c2cccc3cccc(c23)C1=O)N1CCN(c2ccccn2)CC1	-11.9
O=C(Nc1ccc(O)cc1)C1CCCN1S(=O)(=O)c1ccc(F)cc1 (stereo not drawn)	-1.44
COc1ccc(NC(=O)c2ccc(CNc3c(NC4CCCCC4)c(=O)c3=O)cc2)cc1OC	-24.2
CSCC[C@H](NC(=O)OC(C)(C)C)c1nnc(SCC=C(C)C)o1	-29.1
CC(=O)NN1C(=O)c2ccc(Oc3cccc([N+](=O)[O-])c3)cc2C1=O	-28.7
CCN(CC)S(=O)(=O)c1ccc(N(C)C)c(NC(=O)C2CCCC2)c1	-10.8
O=C(COc1ccc(C2SCCS2)cc1)Nc1ccc(Cl)cc1	0.33
CCc1cc2c(=O)c(-c3nc4ccccc4n3C)c(COCC(=O)O)oc2cc1O	7.39
COc1cc2c(cc1OC)CN(C(=O)CSc1nc(C)cc(C)c1C#N)CC2	-14.8
O=C(Cc1ccccc1)N(c1ccc(F)cc1)C1C=CS(=O)(=O)C1 (stereo not drawn)	-3.93
CCCc1cc2c(=O)c(-c3cscn3)c(C(=O)OCC)oc2cc1O	-2.33
COc1ccccc1C(=O)N(Cc1ccco1)C1CCS(=O)(=O)C1 (stereo not drawn)	1.2
COc1ccc(CCNC(=O)c2ccc3c(c2)OCO3)cc1	-2.88
CCN1CCC2(CC1)N=C(c1ccc(F)cc1)C(=S)N2C(=O)c1ccc(C(C)(C)C)cc1	-10.8
COCCNC(=O)C(c1ccc(F)cc1)N(C(=O)CCC(=O)Nc1ccccn1)C1CCCCC1 (stereo not drawn)	13.2
O=C1c2ccccc2C(=O)C1(CO)c1ccc(OC(F)F)cc1	18.3
O=C(O)c1ccccc1Nc1ccc([N+](=O)[O-])c2nonc12	5.49
C#CCOc1ccccc1CNC1CCN(Cc2ccccc2)CC1.O=C(O)C(=O)O	-29.3
Cc1cc(C(=O)OCc2nnc(-c3ccccc3)o2)c(C)n1-c1ccccc1	-36.1
Cc1ccccc1CNS(=O)(=O)c1ccccc1[N+](=O)[O-]	-11.2

From paper PMC4336329 (PLoS ONE, 2015)
